The supplement of paper PMC11417369
Some of the results follow.

What follows are sequences tested on PfAP2-HC AP2 domain (GST-tagged) (assay: gcPBM binding intensity (ln(normalized median fluorescence intensity)); higher = stronger DNA binding).
Procedure, shortened: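 In this array assay, P. falciparum DNA-binding domains with a GST tag, expressed in E. coli, were applied for 1 h to primer-extended double-stranded 36-bp intergenic genomic probes and negative controls on an Agilent 4 × 180k array. Bound protein was visualised with Alexa488 anti-GST antibody at 488 nm. Binding intensity is the highest Masliner-normalised natural-log median intensity across replicate spots of either probe orientation.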

| Sequence | gcPBM binding intensity (ln) |
| --- | --- |
| ATGCATATGTTTATTGCACACACCAAAAAGAAAACA [CACACA_site403] | 9.95 |
| TACAAACTATGATGCACACATATATATATGTATACA [CACACA_site1226] | 9.82 |
| AAAATGTGCCCACGCGTACACACAAAAAAAGAAAAA [CACACA_site2004] | 10 |
| AATAATTAAAATTATCTACACACCTTTATAAATATA [CACACA_site9300] | 9.71 |
| AATTTAAACAAGGATCCACACACCCCAAAAAAAAAA [CACACA_site8125] | 10.7 |
| TAAATTTAGAAACACACACACATATATATATATATA [CACACA_site847] | 10.4 |
| TTTATATTATTTTAAACATGCACAAGTATAATTTAT [TGCATGCA_site233] | 9.49 |
| TGAACAGACGAGCACACACACACATATATATATATA [CACACA_site1019] | 10.3 |
| TTTTCATATGAACAATGTACACATCGTATAATTCTG [XGTACX_site4756] | 9.68 |
| CTCATAAAAATAACGTTAACATAAATTTATTGTGAT [XGTACX_negctrl_site169] | 9.64 |
| TATATGTCAATATCTACACACATATATATAATTATT [CACACA_site3156] | 9.86 |
| AATATAAAACATATCACACATATGTATTTATGTATA [CACACA_site5763] | 9.66 |
| ATACATATTAAAGGATGTACACTTATATTTTTTAGA [XGTACX_site5406] | 9.52 |
| TGTGGGAATAACCACACACACACACGCATATAAATA [CACACA_site7634] | 10.9 |
| TTCTGTTGGAATATATGTACATAATAAAAAAAAATA [XGTACX_site1741] | 9.52 |
| TTTTTTTTTTTTGTAATACACACCACTATATGTTAT [CACACA_site1844] | 9.84 |
| AATAAATAAAAAAAAAAAAAAAAAAAAAAAAAAAAA [XGTACX_negctrl_site343] | 8.8 |
| TGTAGTCTGGAGAAAAGTACACAGTATCTGGTAACA [XGTACX_site2010] | 9.63 |
| TATGGCAAAACATTCACACATATTTATATATGTGTA [CACACA_site5588] | 9.67 |
| AGTTTTATAAAAATATGTACTTATATACACATGTAT [XGTACX_site4022] | 9.82 |
| TATTCTGGTGTAAATGCACACAGAAGAAGAAAAAAA [CACACA_site9225] | 9.75 |
| AAGGACACCTTCAAAACACACATACAAATAAATAGA [CACACA_site5771] | 9.82 |

| Sequence | gcPBM binding intensity (ln) |
| --- | --- |
| TACATACAGATATATACACACATATATAATATATAT [CACACA_site4376] | 10 |
| TACATACCTATATACACATGCATATTTACATATATT [TGCATGCA_site206] | 9.96 |
| AAAATTAAATTATAAGCACACACATATATATATATA [CACACA_site9105] | 9.86 |
| GTAAAAATACAAAAGGTGCTCAAACAATATAATACA | 9.86 |
| GAATATTAAACAAACACACACACATATATTTATATA [CACACA_site7563] | 11.1 |
| AATGGATTGATAAGTGGTACACACATATATATTATA [XGTACX_site6086] | 9.89 |
| TATATAATATATATGACACACATATTTATATAAATA [CACACA_site4054] | 9.57 |
| TTGATATGTACAGGCACACATAAATTTCACAAATAT [CACACA_site3999] | 9.8 |
| CTTTAGTTTTTAATGTGTACTGAATTTGAATAGTAG [XGTACX_site7920] | 9.4 |
| CGTATTATTTTATAAACACACAAGGGGGCATGTATA [CACACA_site6489] | 9.9 |
| ATATAATTAAAAACATGTACATATATATATATATAT [XGTACX_site2882] | 9.61 |
| CATAAATGTATATAAACATGCAAGGACAGACTTTTA [TGCATGCA_site900] | 9.75 |
| TAAGTCGTTATAAGCACACACATAAATAAAAATAAA [CACACA_site1574] | 10 |
| AAGGGTTATAAAAATTGTACTTTTTTTATTTTTTTT [XGTACX_site1313] | 9.72 |
| ATATATTTATATAGGTGTACATATTTTGCTATTCAA [XGTACX_site5199] | 9.62 |
| TCAATTTTTTAATGTTGTACTTTGTAAAAAAAAATA [XGTACX_site8481] | 9.32 |
| ATACCAAATGAATAATGTACATACGAACATACATAT [XGTACX_site1301] | 9.76 |
| GTACATTGTAAGGATGGAAAAGCTAAACATTATAAT [XGTACX_negctrl_site339] | 9.65 |
| AAAAGATTAAGTAGAATAATGTTCTTTCCCAACATA [GTGCAC_negctrl_site223] | 9.45 |
| ATATTTTTAACCAAGGACACAATTCTTGTATTGTTA [CACACA_negctrl_site1326] | 9.43 |
| CATTTAGAATAAGGCACACATAAAGAACACTTTCCA [CACACA_site130] | 9.93 |
| TTATCTTAATTGTGATTATAAAGATATTCTTTCTAT [GTGCAC_negctrl_site410] | 9.52 |
